Measurements as given in article PMC4336329 (PLoS ONE, 2015).
Screen size: about 310,000 compounds; about 14,000 (4.5%) showed an effect of 50% or more. Effects have a minus sign here. This is one part of the list.

Each molecule was assayed against human ether-à-go-go-related gene (hERG) potassium channel (human, UniProt Q12809) (assay: primary screen, population patch clamp on CHO cells stably expressing hERG).
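Further: peak tail current of the secondary pulse compared with the same well before compound.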

Chain of human ether-à-go-go-related gene (hERG) potassium channel (Q12809 whole entry, looked up): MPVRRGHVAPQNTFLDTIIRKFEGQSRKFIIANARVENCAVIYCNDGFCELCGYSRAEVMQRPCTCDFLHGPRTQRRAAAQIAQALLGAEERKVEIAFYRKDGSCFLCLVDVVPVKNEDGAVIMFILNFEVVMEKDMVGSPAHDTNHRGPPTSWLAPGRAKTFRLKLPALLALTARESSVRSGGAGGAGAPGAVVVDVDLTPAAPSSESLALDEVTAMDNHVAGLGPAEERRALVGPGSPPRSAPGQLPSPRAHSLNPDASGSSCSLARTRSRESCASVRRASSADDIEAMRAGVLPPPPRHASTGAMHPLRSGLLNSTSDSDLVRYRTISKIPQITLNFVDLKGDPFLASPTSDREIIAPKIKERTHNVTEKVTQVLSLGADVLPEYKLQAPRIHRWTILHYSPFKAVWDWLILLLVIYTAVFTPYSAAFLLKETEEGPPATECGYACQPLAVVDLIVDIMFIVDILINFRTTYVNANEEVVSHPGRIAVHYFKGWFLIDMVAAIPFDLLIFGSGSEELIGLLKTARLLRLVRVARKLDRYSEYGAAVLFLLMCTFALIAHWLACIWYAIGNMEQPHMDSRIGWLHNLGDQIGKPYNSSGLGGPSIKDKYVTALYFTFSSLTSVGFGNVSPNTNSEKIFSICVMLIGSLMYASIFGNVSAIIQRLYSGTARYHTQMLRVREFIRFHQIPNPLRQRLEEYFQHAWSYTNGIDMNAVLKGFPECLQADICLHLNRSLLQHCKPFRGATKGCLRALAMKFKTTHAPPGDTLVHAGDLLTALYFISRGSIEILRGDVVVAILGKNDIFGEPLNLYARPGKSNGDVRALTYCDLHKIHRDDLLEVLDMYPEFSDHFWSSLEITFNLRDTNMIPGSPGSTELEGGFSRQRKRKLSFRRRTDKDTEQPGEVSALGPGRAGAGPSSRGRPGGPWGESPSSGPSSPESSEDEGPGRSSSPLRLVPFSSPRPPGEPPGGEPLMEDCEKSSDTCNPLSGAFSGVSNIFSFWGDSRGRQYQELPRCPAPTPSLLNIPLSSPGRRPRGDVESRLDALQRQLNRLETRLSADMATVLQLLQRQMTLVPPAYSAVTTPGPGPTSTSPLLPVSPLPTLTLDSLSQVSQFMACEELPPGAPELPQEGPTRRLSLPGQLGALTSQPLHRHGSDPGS

Structure (SMILES) | hERG current change (%, negative = inhibition) at 10uM [%]
CC1CCN(c2nc3c(c(=O)[nH]c(=O)n3C)n2CCCc2ccccc2)CC1 | -15.4
COc1ccc(CN2CCS(=O)(=O)CC2)cc1OC | 21.2
Cn1c(SCC(=O)NCc2ccc3c(c2)OCO3)nnc1C1COc2ccccc2O1 (stereo not drawn) | -39
Cc1cc(C)n(CC(O)CN2C(=O)NC(C)(C)C2=O)n1 (stereo not drawn) | 6.26
COCCNC(=O)CSc1nccn1Cc1ccc2c(c1)OCO2 | 4.64
O=C(O)CNC(=O)c1cccc(C(F)(F)F)c1 | 1.95
CN1CCN(CCCOc2ccc(-c3ccccc3)cc2)CC1.Cl | -69.1
Cc1c(C)n(C)c2ccc(C(=O)NCCCN3CCCCC3C)cc12 (stereo not drawn) | -19.6
N#CC1=C(N)N(c2ccccc2)C2=C(C(=O)CCC2)C1c1ccccc1 (stereo not drawn) | -5.99
CCC1NC(=O)c2cc(S(N)(=O)=O)c(Cl)cc2N1 (stereo not drawn) | 3.8
O=[N+]([O-])c1cccc(/C=C/c2ccncc2)c1 | -18.6
Cc1ccc(-c2cc(-c3ccccc3)nc(N/N=C/c3cccnc3)n2)cc1 | 17.3
CCc1ccccc1N(CC(=O)NCc1ccco1)C(=O)CCC(=O)Nc1nccs1 | 0.493
CCOC(=O)N/N=C/c1ccccc1F | -2.26
CC(C)C(=O)N=C1NC(=O)CS1 | 27.3
CCCN(CCC)CCCNC(=O)c1ccc2c(c1)N(CC)C(=O)c1ccccc1S2=O (stereo not drawn) | -18.6
COc1ccc(C(C)=O)cc1COC(=O)C1CC(=O)N(Cc2ccccc2)C1 (stereo not drawn) | 8.24
COc1ccc(NC(=O)C2CCCN(C(=O)Nc3ccc(F)cc3)C2)cc1 (stereo not drawn) | -9.27
Cc1ccc(Nc2nc(N)nc(CCl)n2)cc1 | 1.76
CCn1c(=O)n(CC)c2cc(N3CCCC3)c(NC(=O)c3c(F)cccc3F)cc21 | -14
Nc1ccc(CCC(=O)N2CCCC2)cc1 | 18.7
COc1ccnc(Oc2ccccc2)c1C(=O)N/C=N/OCc1ccccc1 | 29.6
COc1ccc2sc(N(CCCN(C)C)C(=O)c3ccc(S(=O)(=O)N4CCc5ccccc5C4)cc3)nc2c1.Cl | -6.59

Structure (SMILES) | hERG current change (%, negative = inhibition) at 10uM [%]
CC(=O)c1cccc(NC(=O)CN2C=NS(=O)(=O)c3ccc(C)cc32)c1 | 13.4
CCCOc1ccc(-c2nnn(CC(=O)N3CCC(C)CC3)n2)cc1 | -2.44
CCC(=O)OC1(c2cccc(C)c2)CC(C)N(C)CC1C.Cl (stereo not drawn) | -26.8
CSc1nsc(SCC(=O)Nc2ccc(F)cc2F)n1 | -25.5
CCC1(CC)C(=O)C2=C3C1[C@H](C(=O)OC)C=C(C(=O)OC)C[C@H]3n1c(=O)n(C)c(=O)n1[C@H]2C (stereo partly drawn) | 23.5
CCOC(=O)c1ccc(NC(=O)N2CCN(C3CCCCC3)CC2)cc1 | -29.7
COc1ccc(CCNC(=O)c2nnc(Cc3c(F)cccc3Cl)o2)cc1OC | 13.9
Cc1cccc(N/C(N)=N/c2nc(C)cc(C)n2)c1 | -28
CCOc1ccc(OCC(=O)OCC(=O)N2CCN(C(=O)c3ccco3)CC2)cc1 | -21.9
S=c1[nH]nc(CSCc2ccc(Cl)cc2Cl)n1-c1ccccc1 | 6.18
Cc1ccc(NC2=C(Cl)C(=O)OC2OC(=O)c2ccco2)c(C)c1 (stereo not drawn) | -16.5
COc1ccc(NC(=O)CSc2nnc(-c3ccccc3C)n2N)cc1 | 31.2
CC1CC(C)CN(C(=S)Nc2ccc(OC(F)F)cc2)C1 (stereo not drawn) | -36.6
O=C(N/N=C/c1ccsc1)c1cc2ccccc2o1 | 18.3
CCN(CC)C(=O)CSc1nc(O)cc(=O)n1-c1ccccc1OC | 0.0306
CCOC(=O)c1cnn(-c2ncnc3sc4c(c23)CCC4)c1N | -0.531
COc1ccc(C)cc1NC(=O)CN(C)S(=O)(=O)c1ccc2c(c1)CC(C)N2C(C)=O (stereo not drawn) | -48.5
COc1ccccc1C(=O)COC(=O)Cn1nc(C)c([N+](=O)[O-])c1C | -0.669
COc1cccc(-c2nnc(SCCOc3ccc4c(C)cc(=O)oc4c3)o2)c1 | 2.18
Cc1ccc(/C=N/n2c(-c3cccc(Cl)c3)n[nH]c2=S)o1 | 4.31
CCN(C(=O)COC(=O)c1cc(-c2cccs2)nc2ccccc12)C1CCS(=O)(=O)C1 (stereo not drawn) | -39
O=C(Nc1nc(COc2ccccc2)cs1)C1CCC1 | -12.5
CCOc1cccc(-c2c(C(=O)N/N=C/c3ccc(Br)cc3)nnn2-c2nonc2N)c1 | 11.1

Structure (SMILES) | hERG current change (%, negative = inhibition) at 10uM [%]
Cc1ccc(C)c(OCC(=O)Nc2cc(C(=O)O)cc(C(=O)O)c2)c1 | 10.8
COc1ccc(NC(=S)NCCCn2ccnc2)cc1 | -0.11
O=C(Nc1ccc(F)cc1F)N1CCCCC1c1cccnc1 (stereo not drawn) | -6.4
N#CC1=C2SCN(Cc3ccccc3)CN2C(=O)CC1c1ccc2c(c1)OCO2 (stereo not drawn) | -10.6
CCN1C(=O)/C(=C2\SC(=S)N(NC(=O)c3cccnc3)C2=O)c2ccccc21 | 20
COc1cccc(NC(=O)CSc2nc3ncc(Br)cc3[nH]2)c1 | 7.25
Cc1c(Cl)cccc1NC(=S)NNS(=O)(=O)c1ccc([N+](=O)[O-])cc1 | 25.7
COC(=O)c1c(NC(=O)C(=O)NCCCN2CCOCC2)sc2c1CC(C)(C)OC2 | 15.2
FC(F)(F)c1ccccc1CN1CCCC(N2CCN(c3ccccc3)CC2)C1 (stereo not drawn) | -0.712
Cc1noc(C)c1NC(=O)N1CCN(Cc2ccccc2)CC1 | 8.04
O=S(=O)(c1cccc(C(F)(F)F)c1)N(CCCN1CCOCC1)Cc1cccs1 | -74.9
CC12CC(c3ccccc3O1)C(C(=O)NCc1ccccc1)C(=O)N2 (stereo not drawn) | -4.7
CC1CCc2sc(NC(=O)c3ccc(N4C(=O)CCC4=O)cc3)c(C(N)=O)c2C1 (stereo not drawn) | -1.74
COc1ccc(N(CC(=O)N/N=C/c2ccc3c(c2)OCO3)S(=O)(=O)c2ccccc2)cc1 | 3.83
CCc1cc(OCCCSc2nc(C)cc(=O)[nH]2)ccc1Cl | -4.68
Cc1cc(NC(=O)CCl)nn1C | 29.8
COC(=O)c1cn(NC(=O)Cn2nc([N+](=O)[O-])c(Cl)c2C)c(=O)c2ccccc12 | 18.6
CC(=O)Nc1ccc(S(=O)(=O)Nc2nc(C)cc(-n3nc(C)cc3C)n2)cc1 | -6.52
CCC(C)NS(=O)(=O)c1ccc(N)cc1 (stereo not drawn) | 28.3
CCOC(=O)C1CCCN(C(=O)CSc2ccccc2)C1 (stereo not drawn) | 2.84
O=C(Nc1cccc(C(=O)O)c1)Nc1ccccc1Cl | 4.11
C=CCn1c(SCC(=O)NC2CC2)nnc1-c1cccc(OC)c1 | 2.24
CCCNC(=O)c1n[nH]c(=O)c2ccccc12 | 18

Structure (SMILES) | hERG current change (%, negative = inhibition) at 10uM [%]
CC1CCN(C(=O)CN(Cc2ccc(F)cc2)S(C)(=O)=O)CC1 | 3.57
COc1ccc(S(=O)(=O)N2CCN(Cc3ccccc3)CC2)cc1OC | 5.45
O=C1c2ccccc2CCC12N=NCC2c1ccc(Br)cc1 (stereo not drawn) | -10.8
O=c1c(-c2nc3ccccc3s2)cccn1Cc1ccc(Cl)c(Cl)c1 | -2.04
CCC1Oc2ccccc2N(CC(=O)NCCCN2CCN(c3ccc(OC)cc3)CC2)C1=O (stereo not drawn) | -50.4
Cc1ccccc1C(=O)Nc1nc2c(C)csc2c(=O)s1 | 15.8
COc1ccc(NC(=O)CCNS(=O)(=O)c2cccc3nsnc23)cc1OC | -4.64
CCCCSc1nnc(CSc2ncccn2)n1C | -0.237
COc1cc(CC(=O)NCc2ccccn2)cc(OC)c1OC | 2.42
Cc1cccc(NC(=S)/N=C(\N)Nc2nc(C)c3ccccc3n2)c1 | -4.99
Cc1cccc(NC(=S)NC(=O)c2ccco2)c1C | 0.486
CC(C)NC(=O)c1sc2nc3c(c(-c4cccs4)c2c1N)CN(C)CC3 | -25.8
O=C(N/N=C/C1C(=O)NC(=S)N(c2ccccc2)C1=O)c1cc(Br)c(O)c(Br)c1 (stereo not drawn) | 11.1
COc1ccccc1C(O)(C(=O)NN(C)c1ccccc1)c1ccccc1OC | 9.03
COC(=O)c1[nH]c2cccc(OC)c2c1NC(=O)CN1CC2(C)CC1CC(C)(C)C2 (stereo not drawn) | 9.92
CN1C(=O)c2ccccc2NC(=O)[C@]12O[C@@H]2c1ccccc1 | 2.2
Cn1nnc2cc(C(=O)Nc3ccccc3F)ccc21 | 13.6
COc1cccc(-n2c(C)cc(/C=C3/C(=N)N4C(=NC3=O)SN=C4S(C)(=O)=O)c2C)c1 | 11
CC(C)NC(=O)NC(=O)COC(=O)c1ccc(S(=O)(=O)Nc2ccccc2)cc1 | -4.82
CCOc1cc(C(=S)N2CCCC2)ccc1OC | 16.6
O=C(NC1CCCCCC1)c1ccc2c(=O)n3c(nc2c1)CCCCC3 | -51
